According to the supplement of paper PMC4166925:
± gives the standard deviation of the averaged measurements. Over roughly 33,000 sequences, “E-score (dimensionless, -0.5 to 0.5)” has its median near -0.046; the highest 2% begin near 0.36. This is one part of the list.

What follows are sequences tested on T1, SpTbr T-box DNA-binding domain (GST fusion) (assay: PBM E-score of 8-mer (E-score (dimensionless, -0.5 to 0.5)); Tbr is Tbrain of the sea star Patiria miniata (Pm) or the sea urchin Strongylocentrotus purpuratus (Sp); higher = stronger binding preference; most listed sequences are background and not binding sites). Conditions: the construct has about 5 more residues each side.
T1 sequence: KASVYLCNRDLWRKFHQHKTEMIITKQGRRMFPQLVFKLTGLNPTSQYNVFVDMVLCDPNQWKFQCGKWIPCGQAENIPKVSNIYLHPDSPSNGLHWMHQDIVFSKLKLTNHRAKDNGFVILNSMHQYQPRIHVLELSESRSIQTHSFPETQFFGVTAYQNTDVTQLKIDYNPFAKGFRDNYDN
Outline: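 Using the Universal PBM Analysis Suite, every ungapped 8-mer received an enrichment E-score averaged over duplicate arrays. Probe intensities came from double-stranded Universal Agilent oligonucleotide arrays incubated with 200 nM GST-fused Tbr T-box DNA-binding domain in PBS (pH 7.5). That protein was expressed in BL21 E. coli at 20 °C and purified by glutathione affinity chromatography.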

| Sequence | PBM E-score of 8-mer |
| --- | --- |
| CGCCCGCA | 0.016 ± 0.092 |
| CACGCTAA | 0.189 ± 0.0026 |
| AGTGCCTG | -0.108 ± 0.096 |
| AGCATGCC | -0.173 ± 0.059 |
| GGAAGTCA | -0.175 ± 0.064 |
| GGGGTCAA | -0.0735 ± 0.019 |
| AAACGAGA | -0.256 ± 0.032 |
| AATGCTTA | -0.107 ± 0.0042 |
| GATCCCCA | 0.0786 ± 0.031 |
| CGAATCTA | -0.0903 ± 0.013 |
| TGGCAGAA | -0.18 ± 0.022 |
| CCCTGTTC | -0.169 ± 0.0068 |
| CAACTGGG | -0.029 ± 0.029 |
| ATCTCGCG | 0.271 ± 0.01 |
| GAGCACAC | 0.086 ± 0.016 |
| CTTCCAAG | -0.213 ± 0.039 |
| GTTGCATA | -0.117 ± 0.03 |
| AGTCTCAG | -0.136 ± 0.059 |
| ATCTACTA | -0.229 ± 0.003 |
| AAGCCATG | -0.217 ± 0.025 |
| ATGTTAAC | 0.182 ± 0.097 |
| ACTGTTTA | -0.023 ± 0.049 |

| Sequence | PBM E-score of 8-mer |
| --- | --- |
| AACATAAG | -0.0422 ± 0.07 |
| CACTCAGG | -0.0871 ± 0.041 |
| AACCCACC | -0.164 ± 0.0065 |
| GACACCGA | 0.293 ± 0.0048 |
| AGCAGCTA | 0.04 ± 0.044 |
| CCAATCGA | -0.0623 ± 0.012 |
| GATACTTA | -0.137 ± 0.011 |
| TGAACTCA | -0.0862 ± 0.056 |
| GCCCTGAA | -0.173 ± 0.069 |
| AATCGCTA | 0.0759 ± 0.0071 |
| CCTAAAGC | -0.194 ± 0.082 |
| ACCCAACG | 0.0224 ± 0.064 |
| ATCCATAC | -0.383 ± 0.0073 |
| GGGAGTAC | -0.07519 ± 0.00044 |
| GGGTAGAA | -0.074 ± 0.055 |
| ATGAAATA | -0.0629 ± 0.043 |
| CTTCAACC | -0.0664 ± 0.065 |
| GCAGGCCC | -0.275 ± 0.011 |
| ATATGGAC | -0.255 ± 0.035 |
| CCCATTCC | -0.172 ± 0.028 |
| AAACTCCC | -0.119 ± 0.057 |
| AAGATTAG | -0.159 ± 0.043 |

| Sequence | PBM E-score of 8-mer |
| --- | --- |
| GATGTCCC | -0.211 ± 0.064 |
| ATTTTCGA | -0.223 ± 0.009 |
| GCCTTAGC | 0.154 ± 0.043 |
| GTGGTCTA | -0.228 ± 0.012 |
| AACTAGAA | -0.0985 ± 0.021 |
| GTCAGGAC | 0.064 ± 0.017 |
| CCTAACCC | -0.131 ± 0.035 |
| ACGATGCT | 0.00838 ± 0.043 |
| AGCGCCCG | 0.0858 ± 0.0036 |
| ACACCGTC | 0.297 ± 0.01 |
| CTAGTAGA | -0.0229 ± 0.019 |
| CACGGCCC | -0.00754 ± 0.068 |
| CTTGGGAA | -0.0381 ± 0.048 |
| AATAGAAC | -0.0992 ± 0.11 |
| CAGTTGAC | 0.249 ± 0.051 |
| CCGCGCCA | 0.0588 ± 0.039 |
| GCGTTGAA | 0.136 ± 0.018 |
| CACGTTCG | 0.172 ± 0.046 |
| CTAGGAGA | -0.129 ± 0.024 |
| AACCGCGT | -0.085 ± 0.07 |
| ATACAAAC | -0.0839 ± 0.019 |
| GTACTTAA | -0.0822 ± 0.049 |

| Sequence | PBM E-score of 8-mer |
| --- | --- |
| CACAGGTC | 0.198 ± 0.045 |
| ATAGGCCG | -0.143 ± 0.01 |
| GAATTGGA | 0.0696 ± 0.063 |
| CGTTGCCC | -0.118 ± 0.085 |
| CCCCTAAG | -0.17 ± 0.067 |
| CACGTAGC | 0.104 ± 0.01 |
| CATGAACC | -0.0306 ± 0.054 |
| TGACTCCA | -0.143 ± 0.087 |
| TTAATAAA | -0.296 ± 0.074 |
| GTAATGGA | -0.21 ± 0.055 |
| GACCATGC | -0.0495 ± 0.057 |
| AAGACTTC | -0.0418 ± 0.027 |
| ACTCCTGG | 0.189 ± 0.013 |
| CCGATACG | -0.224 ± 0.0047 |
| CCGTCAGG | 0.166 ± 0.042 |
| AGCCTGCC | 0.00934 ± 0.038 |
| GGCGCCGA | 0.145 ± 0.025 |
| AACGAACA | -0.0638 ± 0.002 |
| CAACGTCA | 0.0949 ± 0.013 |
| TCCAAAAA | -0.169 ± 0.0031 |
